Measurements as given in PubChem BioAssay AID1508624 (National Center for Advancing Translational Sciences (NCATS), 2021).
The campaign covered roughly 48,000 compounds. About 120 (0.25%) were called active. Not shown: some 4% with an inconclusive outcome. Calls follow the shape of the dose curve; as a rule, active = well fitted activation curve with a large enough effect; inconclusive = small, poorly fitted or top-dose-only effect, or another doubt; inactive = no such curve, though single readings can be large or run the other way. The list shows a part of the results.

experiment: Primary qHTS for Identification of Small Molecule Activators of Huntingtin-Antisense Promoter Activity; settings: HEK293 HTT-AS promoter firefly luciferase reporter, 24 h; series mostly up to 57.5 µM; activity change, positive = activation: at the top concentration; also: nearly all actives have a fitted effect of over 55% in size
How it was run: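 Firefly luciferase readout (Dual-Glo, 10 min RT) after 24 h, 37 °C compound exposure (final up to 57.5 uM) of HEK293 reporter cells cultured 24 h beforehand; PTC124 at 50 uM final as control inhibitor; activity scaled vehicle 0%, zero RLU -100%.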

Row | Structure (SMILES) | activity change, positive = activation
1 | Clc1ccc(CCNc2ncnc3c2c(-c2ccccc2)cn3-c2ccccc2)cc1 | inactive: -13.1%
2 | COc1ccc(C(=O)CN2C(=O)N(c3cc(C)cc(C)c3)S(=O)(=O)c3ccccc32)cc1 | inactive: -21.4%
3 | Cc1cc(OCCCS(C)(=O)=O)cc(C)c1-c1cccc(COc2ccc3c(c2)OC[C@H]3CC(=O)O)c1 | inactive: -27.9%
4 | COc1ccccc1CNC(=O)Cn1ncc2c(=O)oc3ccc(C)cc3c21 | inactive: -1.55%
5 | Cc1ccc(Nc2c(-c3ccc(C)cc3)nc3cnccn23)cc1 | inactive: -22.1%
6 | Cc1ccccc1CS(=O)(=O)Cc1ccc(C(=O)NCCc2ccccc2)o1 | inactive: -10.8%
7 | CCOC(=O)c1ccc(Nc2c(-c3ccc(O)cc3)nc3nc[nH]n23)cc1 | inactive: -26.6%
8 | COc1cc(C(=O)Nc2cc(C)ccc2OCc2cc(=O)n3cc(C)sc3n2)cc(OC)c1OC | inactive: -13%
9 | COc1cccc(-c2nc3c(c(SCc4ccccc4)n2)Cc2c(CO)cnc(C)c2O3)c1 | inactive: -1.12%
10 | CN(C)CC=CC(=O)Nc1cc2c(Nc3ccc(F)c(Cl)c3)ncnc2cc1O[C@H]1CCOC1 | inactive: -45.2%
11 | NC(=O)c1cc(S(=O)(=O)NCc2ccccc2)cs1 | inactive: -22.1%
12 | CCCn1c(=O)n(-c2ccccc2)c(=O)c2sc3ccccc3c21 | inactive: -11.1%
13 | COc1cc(CCc2cc(NC(=O)c3ccc(N4C[C@@H](C)N[C@@H](C)C4)cc3)n[nH]2)cc(OC)c1 | inactive: -21.6%
14 | CN(C(=O)CCNC(=O)Cn1cnc2ccccc2c1=O)c1ccccc1F | inactive: -11.8%
15 | C=CCc1c(C)nc2nc(SCC(=O)Nc3ccccc3CC)nn2c1C | inactive: 3.15%
16 | CCOc1ccc(CCNC(=O)CN2CCN(Cc3ccc(F)cc3Cl)C2=O)cc1OCC | inactive: -18.4%
17 | CCCOc1ccccc1C(=O)N1CCC(c2nc3ccccc3s2)CC1 | inactive: 1.99% [at 11.5 µM, percent change from vehicle, -100% = no light]
18 | CCOC(=O)CSc1nc2cc3c(cc2c(=O)n1CCCC(=O)NCc1ccc2c(c1)OCO2)OCO3 | inactive: -9%
19 | CC(C)Cc1nn2c(=O)cc(COC(=O)c3cccc(NC(=O)CCc4ccccc4)c3)nc2s1 | inactive: 5.53%
20 | C=Cc1ccc(CSc2nc(-c3ccc(OC)cc3)nc3c2Cc2c(CO)cnc(C)c2O3)cc1 | inactive: -11.3%
21 | CCOC(=O)c1c(C)c(C(=O)NCCc2ccc(OC)cc2)c(C)n1C | inactive: -5.35%
22 | CCc1nn(CC(=O)Nc2cccc(C)c2C)c(=O)c2cc3sccc3n12 | inactive: -11.6%
23 | Cc1ccc(CCNC(=O)C2CCCN(Cc3nc(-c4cccc(Cl)c4)oc3C)C2)cc1 (configuration not stated) | inactive: -64.5%
24 | CN(C(=O)CSc1cn(CC(=O)N2CCCCC2)c2ccccc12)c1ccccc1 | inactive: -5.27%

Row | Structure (SMILES) | activity change, positive = activation
25 | COc1ccc(-c2noc(C3CC(=O)N(c4cc(C)cc(C)c4)C3)n2)cc1 (configuration not stated) | inactive: 0.69%
26 | COc1ccc(/C=C/c2nc(C#N)c(N3CCN(c4ccccc4)CC3)o2)cc1OC | inactive: -13%
27 | O=C(Cc1ccc(F)cc1)N1CCC(c2nc3c(nnn3Cc3ccc(Cl)cc3)c(=O)[nH]2)CC1 | inactive: -28.4%
28 | Cc1ccc2nc(-c3ccccn3)c(Nc3ccc(F)cc3)n2c1 | inactive: -53%
29 | CCC(C)NC(=O)c1ccc2c(c1)N(Cc1ccccc1)C(=O)c1ccccc1S2(=O)=O (configuration not stated) | inactive: -15.4%
30 | CCC(Oc1ccccc1)C(=O)Nc1ccccc1OCc1cc(=O)n2ccccc2n1 (configuration not stated) | inactive: 2.7%
31 | CC1=C(C(=O)Nc2ccc(Cl)cc2)C(C(C)C)n2nc(SCc3cccc(C)c3)nc2N1 (configuration not stated) | inactive: 7.97%
32 | CCOC(=O)C1CCCN(c2ncnc3c2cnn3-c2ccc(C)c(Cl)c2)C1 (configuration not stated) | inactive: -11.7%
33 | Cn1c(=O)c2c(SCC(=O)NCc3ccco3)nc(-c3ccccc3Cl)nc2n(C)c1=O | inactive: -10.7%
34 | Cc1ccc(NC(=O)CSc2nc3c(c(=O)[nH]2)CN(Cc2ccc4c(c2)OCO4)CC3)cc1C | inactive: 17.4%
35 | CC(C)c1ccc(CNCCSc2nnnn2C)cc1 | inactive: -8.39%
36 | CCc1ccccc1NC(=O)c1cc(S(=O)(=O)NCCc2ccc(OC)c(OC)c2)ccc1F | inactive: -27%
37 | CC(=O)Nc1c(C)nn(-c2ccccc2)c1N1CCC(C(=O)Nc2cc(Cl)ccc2C)CC1 | inactive: 21.3%
38 | Cc1nnc(NC(=O)c2nc(S(=O)(=O)Cc3ccccc3)ncc2Cl)s1 | inactive: -93.5%
39 | CCOc1ccc(NC(=O)C(C)Sc2nnc3cc(C)c4ccccc4n23)cc1 (configuration not stated) | inactive: -0.245%
40 | O=C(O)[C@@H]1CSCN1 | inactive: -9.55%
41 | C=C[C@@]1(C)CC(=O)[C@]2(O)[C@@]3(C)[C@@H](O)CCC(C)(C)[C@@H]3[C@H](O)[C@H](OC(C)=O)[C@@]2(C)O1 | inactive: -5.3%
42 | Cc1cccc(NC(=O)C(=O)NCC(c2cccnc2)N2CCOCC2)c1 (configuration not stated) | inactive: -3.55%
43 | CCCOc1ccc(C2c3c(-c4ccccc4O)n[nH]c3C(=O)N2Cc2ccncc2)cc1OCC (configuration not stated) | inactive: -23%
44 | Cc1cc2nc3ccc(=[N+](C)C)cc-3sc2cc1N | inactive: -20.2%
45 | COc1ccc(C)cc1NC(=O)C(=O)NCCc1csc(-c2ccc(C)cc2)n1 | inactive: -3.12%
46 | Cc1ccc(C)c(NC(=O)CCNS(=O)(=O)c2ccc3c(c2)CCCC(=O)N3)c1 | inactive: -19.9%
47 | COCCNC(=O)c1ccc2c(c1)N(Cc1cccc(Cl)c1)C(=O)c1ccccc1S2=O (configuration not stated) | inactive: -13.6%
